Assay results as given in the supplement of paper PMC9446081.
Out of some 39,000 compounds screened, about 220 (0.56%) showed activity. The list shows a part of the results.

system: Escherichia coli K-12 BW25113; test: relative growth (OD600 normalised to plate interquartile mean) (fraction); higher = less growth inhibition, active = 0.2 or less; details: 50 µM; LB; incubation time: overnight (16-24 h)
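Note: static incubation at 37 °C against the wild-type strain, values averaged over two biological replicates.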

Question: With `CCCCCCCCCCC/C=C\C/C=C\CCCC(=O)O` as the compound, how does the relative growth read?
Answer: inactive: 0.895

Question: `C[C@@H]1CCCCO[C@H](CN(C)S(=O)(=O)c2ccc(Cl)cc2)[C@H](C)CN([C@H](C)CO)C(=O)c2cc(NC(=O)C3CCCCC3)ccc2O1` was tested. Which relative growth did it give?
Answer: inactive: 1.03

Question: For `COCC(=O)Nc1ccc2c(c1)C(=O)N(C)C[C@H](OC)[C@@H](C)CN(C(=O)c1ccccc1F)[C@H](C)CO2`, which relative growth is on record?
Answer: inactive: 1.01

Question: With `O=C(NCCCN1CCOCC1)[C@@H]1[C@@H](CO)[C@@H]2Cn3c(ccc(C4=CCCCC4)c3=O)[C@H]1N2` as the compound, how does the relative growth read?
Answer: inactive: 0.997

Question: How did the relative growth turn out when `C[C@H](CO)N1C[C@H](C)[C@H](CN(C)S(=O)(=O)c2cccs2)Oc2ccc(NC(=O)C3CC3)cc2CC1=O` was run?
Answer: inactive: 0.984

Question: With `C[C@@H]1CCCCO[C@H](CN(C)S(=O)(=O)c2cn(C)cn2)[C@@H](C)CN([C@@H](C)CO)C(=O)c2cc(NS(=O)(=O)c3cn(C)cn3)ccc2O1` as the compound, how does the relative growth read?
Answer: inactive: 1.01

Question: With `COc1ccc(NC(=O)Nc2ccc3c(c2)CC(=O)N([C@@H](C)CO)C[C@@H](C)[C@H](CN(C)S(=O)(=O)c2c(C)noc2C)O3)cc1` as the compound, how does the relative growth read?
Answer: inactive: 0.922

Question: How did the relative growth turn out when `C[C@H](CO)N1C[C@H](C)[C@@H](CN(C)CC2CC2)OCCCC[C@H](C)Oc2ccc(NC(=O)Nc3cccc4ccccc34)cc2C1=O` was run?
Answer: inactive: 0.991

Question: For `C/C=C/c1ccc2c(c1)O[C@H](CN(C)S(=O)(=O)c1ccc(C)cc1)[C@H](C)CN([C@H](C)CO)S2(=O)=O`, which relative growth is on record?
Answer: inactive: 1.01

Question: How did the relative growth turn out when `CSc1sc(C)cc1/C=N/O` was run?
Answer: inactive: 1.01

Question: `C[C@H]1CN([C@@H](C)CO)C(=O)c2ccccc2-c2ccccc2CO[C@H]1CN(C)C(=O)Nc1ccccc1C(F)(F)F` was tested. Which relative growth did it give?
Answer: inactive: 0.933

Question: `COC(=O)c1c(C(=O)OC)c2n(c(=O)c1-c1ccccc1)[C@@H]1c3ccccc3O[C@@](COCc3ccc(OC)cc3)([C@@H]1COC(=O)c1ccccc1)N2C` was tested. Which relative growth did it give?
Answer: inactive: 1.08

Question: Which relative growth does the source give for `CCN1CC2(CCN(C(=O)[C@H]3CCC(=O)N3)CC2)COc2ccccc2S1(=O)=O` here?
Answer: inactive: 0.999

Question: How did the relative growth turn out when `Cc1noc(C)c1NC(=O)Nc1ccc2c(c1)C(=O)N([C@@H](C)CO)C[C@H](C)[C@@H](CN(C)S(=O)(=O)c1ccc(Cl)cc1)OCCCC[C@H](C)O2` was run?
Answer: inactive: 0.991

Question: `COCC(=O)Nc1ccc2c(c1)C(=O)N(C)C[C@H](OC)[C@@H](C)CN(Cc1cccc(F)c1)[C@@H](C)CO2` was tested. Which relative growth did it give?
Answer: inactive: 0.976

Question: For `COc1ccc(C#Cc2ccc3c(c2)[C@]2(C(=O)N3)[C@H](c3ccc(OCCO)cc3)N3[C@H](c4ccccc4)[C@H](c4ccccc4)OC(=O)[C@H]3[C@@H]2C(=O)N2CCN(c3ncccn3)CC2)cc1`, which relative growth is on record?
Answer: inactive: 1.08

Question: `C[C@H]1CCCCO[C@@H](CN(C)C(=O)C2CCCCC2)[C@@H](C)CN([C@@H](C)CO)C(=O)c2cc(NC(=O)Nc3ccc(F)cc3)ccc2O1` was tested. Which relative growth did it give?
Answer: inactive: 0.99

Question: Which relative growth does the source give for `CO[C@H]1CN(C)C(=O)c2ccc(NC(=O)C3CC3)cc2OC[C@@H](C)N(C(=O)CN2CCOCC2)C[C@@H]1C` here?
Answer: inactive: 1

Question: Which relative growth does the source give for `CO[C@@H](CN(C)S(=O)(=O)c1cccc(Cl)c1)[C@H](C)CN([C@@H](C)CO)S(=O)(=O)c1cccc(Cl)c1` here?
Answer: inactive: 1.02

Question: How did the relative growth turn out when `CC(C)NC(=O)N[C@@H]1CC[C@H](CCN)O[C@H]1CO` was run?
Answer: inactive: 0.979

Question: With `Cc1noc(C)c1NC(=O)Nc1ccc2c(c1)C(=O)N([C@@H](C)CO)C[C@H](C)[C@@H](CN(C)C(=O)Cc1ccccc1)OCCCC[C@@H](C)O2` as the compound, how does the relative growth read?
Answer: inactive: 0.996

Question: How did the relative growth turn out when `Cc1ccc(S(=O)(=O)N(C)C[C@@H]2Oc3cc(C#Cc4ccccc4)ccc3S(=O)(=O)N([C@H](C)CO)C[C@@H]2C)cc1` was run?
Answer: inactive: 1

Question: For `C[C@@H]1CCCCO[C@@H](CN(C)Cc2ccc(C(F)(F)F)cc2)[C@H](C)CN([C@H](C)CO)C(=O)c2cc(NC(=O)Nc3ccc(F)cc3)ccc2O1`, which relative growth is on record?
Answer: inactive: 1.03

Question: Which relative growth does the source give for `COc1cc(-c2cc(=O)c3c(s2)N(Cc2ccco2)[C@@H](c2ccc(O)c(OC)c2)CC3=O)ccc1O` here?
Answer: inactive: 1.01

Question: `Cc1noc(C)c1NC(=O)N(C)C[C@H]1Oc2c(NC(=O)C3CCOCC3)cccc2C(=O)N([C@@H](C)CO)C[C@@H]1C` was tested. Which relative growth did it give?
Answer: inactive: 0.966

Question: How did the relative growth turn out when `Cc1noc(C)c1NC(=O)Nc1ccc2c(c1)C(=O)N([C@H](C)CO)C[C@@H](C)[C@@H](CN(C)Cc1ccc3c(c1)OCO3)OCCCC[C@@H](C)O2` was run?
Answer: inactive: 0.975

Question: For `C[C@@H]1CCCCO[C@@H](CN(C)Cc2ccncc2)[C@@H](C)CN([C@@H](C)CO)C(=O)c2cc(NC(=O)Cc3ccccc3)ccc2O1`, which relative growth is on record?
Answer: inactive: 1.01

Question: Which relative growth does the source give for `Cc1noc(C)c1NC(=O)Nc1ccc2c(c1)CC(=O)N([C@H](C)CO)C[C@@H](C)[C@@H](CN(C)C(=O)Nc1ccc(C(F)(F)F)cc1)O2` here?
Answer: inactive: 0.981

Question: For `COc1cccc(C(=O)Nc2ccc3c(c2)C(=O)N(C)[C@@H]2CC[C@H](CC(=O)NCCCN4CCOCC4)O[C@H]2CO3)c1`, which relative growth is on record?
Answer: inactive: 0.993

Question: How did the relative growth turn out when `Cc1noc(C)c1NC(=O)Nc1ccc2c(c1)C(=O)N([C@H](C)CO)C[C@H](C)[C@@H](CN(C)S(=O)(=O)c1cn(C)cn1)O2` was run?
Answer: inactive: 0.997

Question: With `Cn1c(N)c(C(=O)c2ccco2)c(=O)n(C)c1=O` as the compound, how does the relative growth read?
Answer: inactive: 0.981

Question: Which relative growth does the source give for `COc1ccc([C@H]2CC=CC[C@H](C)Oc3ccccc3C(=O)N(C)[C@@H](Cc3ccccc3)C(=O)N2)c(OC)c1` here?
Answer: inactive: 1.01

Question: Which relative growth does the source give for `C[C@@H]1CN([C@@H](C)CO)C(=O)c2cc(C#Cc3ccccc3)cnc2O[C@@H]1CN(C)C(=O)CCN1CCCCC1` here?
Answer: inactive: 1.02

Question: For `C[C@H]1CN([C@@H](C)CO)C(=O)c2cc(NC(=O)CCCCCC(=O)Nc3ccccc3N)ccc2O[C@@H]1CN(C)C(=O)Nc1ccc(C(F)(F)F)cc1`, which relative growth is on record?
Answer: inactive: 1

Question: How did the relative growth turn out when `Cc1ccc(S(=O)(=O)Nc2ccc3c(c2)C(=O)N([C@@H](C)CO)C[C@@H](C)[C@H](CN(C)S(=O)(=O)c2cn(C)cn2)O3)cc1` was run?
Answer: inactive: 0.983

Question: With `C[C@H](CO)N1C[C@H](C)[C@H](CN(C)S(=O)(=O)c2ccc(F)cc2)Oc2ccc(NC(=O)Nc3cccc4ccccc34)cc2CC1=O` as the compound, how does the relative growth read?
Answer: inactive: 1.04

Question: For `CC(C)(N)c1cn(CC2CCN(C(=O)c3ccccc3-n3cccn3)CC2)nn1`, which relative growth is on record?
Answer: inactive: 1

Question: How did the relative growth turn out when `C[C@@H]1CN([C@@H](C)CO)C(=O)CCCn2cc(nn2)CO[C@H]1CN(C)S(=O)(=O)c1ccc2c(c1)OCCCO2` was run?
Answer: inactive: 1

Question: With `C[C@@H]1CCCCO[C@H](CN(C)S(=O)(=O)c2ccc(Cl)cc2)[C@@H](C)CN([C@@H](C)CO)C(=O)c2cc(NC(=O)Nc3ccc(C(F)(F)F)cc3)ccc2O1` as the compound, how does the relative growth read?
Answer: inactive: 0.989

Question: For `CN(C)CCCCNC(=O)[C@H]1C[C@H]2C(=O)N3CCC[C@H]3C(=O)N2[C@H]1c1cccc(OCCO)c1`, which relative growth is on record?
Answer: inactive: 0.99

Question: For `C[C@H](CO)N1C[C@H](C)[C@H](CN(C)C(=O)NC2CCCCC2)OCCCC[C@H](C)Oc2ccc(NC(=O)Nc3ccc(C(F)(F)F)cc3)cc2C1=O`, which relative growth is on record?
Answer: inactive: 1.02

Question: `COc1cccc(CNC(=O)C[C@@H]2C=C[C@@H](NC(=O)C3CCOCC3)[C@@H](CO)O2)c1` was tested. Which relative growth did it give?
Answer: inactive: 0.983

Question: Which relative growth does the source give for `C[C@@H]1CN([C@@H](C)CO)C(=O)c2cc(NS(=O)(=O)c3cccs3)ccc2O[C@@H](C)CCCCO[C@@H]1CN(C)C(=O)CCC(F)(F)F` here?
Answer: inactive: 1.03

Question: `Cc1ccc(S(=O)(=O)Nc2ccc3c(c2)C(=O)N([C@@H](C)CO)C[C@@H](C)[C@H](CN(C)S(=O)(=O)c2ccc(Cl)cc2)OCCCC[C@@H](C)O3)cc1` was tested. Which relative growth did it give?
Answer: inactive: 1.01

Question: Which relative growth does the source give for `C[C@H](CO)N1C[C@H](C)[C@H](CN(C)S(=O)(=O)c2ccc(Cl)cc2)OCCCC[C@H](C)Oc2ccc(NS(=O)(=O)c3ccccc3)cc2C1=O` here?
Answer: inactive: 1

Question: For `COc1ccc2c3c(n(c2c1)C)[C@H](CO)N(C[C@]13CCN(CC1)C(=O)C1CCOCC1)C(=O)C1CCOCC1`, which relative growth is on record?
Answer: inactive: 0.967

Question: With `COc1ccc2c3c(n(c2c1)C)[C@H](CO)N(Cc1ccccc1Cl)C[C@]13CCN(CC1)C(=O)CC1CC1` as the compound, how does the relative growth read?
Answer: inactive: 0.953

Question: With `C[C@@H]1CN([C@@H](C)CO)S(=O)(=O)c2ccc(C#Cc3cccnc3)cc2O[C@@H]1CN(C)CC1CCOCC1` as the compound, how does the relative growth read?
Answer: inactive: 1

Question: With `O=C(C[C@H]1C[C@@H]2c3cc(NC(=O)Cc4ccncc4)ccc3O[C@@H]2[C@@H](CO)O1)NCc1ccc2c(c1)OCO2` as the compound, how does the relative growth read?
Answer: inactive: 0.999

Question: With `CCc1nnc(N)o1` as the compound, how does the relative growth read?
Answer: inactive: 0.986

Question: How did the relative growth turn out when `O=c1c(O)nnc2n1CCN2c1ccccc1` was run?
Answer: inactive: 0.954

Question: With `C[C@H]1CCCCO[C@@H](CN(C)Cc2ccccc2)[C@@H](C)CN([C@@H](C)CO)C(=O)c2cc(NC(=O)Nc3ccccc3)ccc2O1` as the compound, how does the relative growth read?
Answer: inactive: 0.952

Question: For `COc1cccc(S(=O)(=O)Nc2ccc3c(c2)[C@@H]2C[C@@H](CC(=O)NCc4cccc(F)c4)O[C@@H](CO)[C@@H]2O3)c1`, which relative growth is on record?
Answer: inactive: 0.988

Question: For `C[C@@H]1CN([C@H](C)CO)C(=O)Cc2cc(NC(=O)c3ccncc3)ccc2O[C@H]1CN(C)Cc1ccc2c(c1)OCO2`, which relative growth is on record?
Answer: inactive: 1.02

Question: How did the relative growth turn out when `COc1cc(C(=O)O[C@H]2CC[C@@]3(C)[C@@H]4CC[C@H]5[C@]6(O)C[C@H](O)[C@@]7(O)[C@@H](CN8C[C@@H](C)CC[C@H]8[C@@]7(C)O)[C@]6(O)C[C@@]53O[C@@]24O)cc(OC)c1OC` was run?
Answer: inactive: 0.989

Question: With `Cc1noc(C)c1S(=O)(=O)Nc1ccc2c(c1)C(=O)N([C@@H](C)CO)C[C@H](C)[C@H](CN(C)Cc1ccc(-c3ccccc3)cc1)O2` as the compound, how does the relative growth read?
Answer: inactive: 0.996

Question: With `OCC1(CO)COC2(CCCCC2)N1` as the compound, how does the relative growth read?
Answer: inactive: 1.01

Question: Which relative growth does the source give for `CO[C@@H]1CN(C)C(=O)c2ccc(NS(C)(=O)=O)cc2OC[C@@H](C)N(C(=O)C2CCOCC2)C[C@H]1C` here?
Answer: inactive: 1.03
